# The full ranking holds about 33,000 sequences; the median of “E-score (-0.5 to 0.5)” is about -0.011, and the highest 2% start at about 0.28. The list shows a part of the results.
# Target: T1, Gcr1 (UniProt P07261)
# T1 sequence: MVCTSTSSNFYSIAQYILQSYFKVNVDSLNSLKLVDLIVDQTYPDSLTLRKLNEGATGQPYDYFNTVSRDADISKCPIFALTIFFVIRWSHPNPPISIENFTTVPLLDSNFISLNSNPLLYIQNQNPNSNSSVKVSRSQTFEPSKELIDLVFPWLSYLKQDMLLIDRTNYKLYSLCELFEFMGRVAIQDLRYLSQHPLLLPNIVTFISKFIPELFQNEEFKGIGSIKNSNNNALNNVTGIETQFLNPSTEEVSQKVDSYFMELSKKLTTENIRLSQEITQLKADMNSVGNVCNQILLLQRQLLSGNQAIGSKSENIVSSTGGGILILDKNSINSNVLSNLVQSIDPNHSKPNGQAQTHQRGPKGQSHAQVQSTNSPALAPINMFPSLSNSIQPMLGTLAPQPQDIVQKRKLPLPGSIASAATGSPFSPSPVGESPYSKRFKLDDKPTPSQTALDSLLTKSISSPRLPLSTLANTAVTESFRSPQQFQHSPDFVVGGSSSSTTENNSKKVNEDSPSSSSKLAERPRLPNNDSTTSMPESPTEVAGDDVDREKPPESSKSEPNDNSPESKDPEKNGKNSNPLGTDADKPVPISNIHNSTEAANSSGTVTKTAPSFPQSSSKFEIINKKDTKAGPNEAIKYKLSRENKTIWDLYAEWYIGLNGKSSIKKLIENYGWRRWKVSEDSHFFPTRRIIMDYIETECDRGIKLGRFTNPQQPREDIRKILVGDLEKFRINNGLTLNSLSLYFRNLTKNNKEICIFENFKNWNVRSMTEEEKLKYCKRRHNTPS
# Experiment: PBM E-score (8-mer binding enrichment) (E-score (-0.5 to 0.5)); higher = stronger / more preferred TF binding; most listed sequences are background and not binding sites
# Conditions: protein concentration: 100 nM; construct: GST-full length
# Outline: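 Bound GST-tagged yeast transcription factors, applied at about 100-200 nM to double-stranded universal all-10-mer Agilent arrays, were detected with fluorescent anti-GST. Scans were normalised with masliner. A modified Wilcoxon-Mann-Whitney statistic, the E-score, was assigned to each ungapped eight-base word pooled with its reverse complement by the Universal PBM Analysis Suite.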
row,Sequence,PBM E-score
1,ATGCCGCG,0.0711
2,CCTCATCG,-0.243
3,CGAATGCC,-0.132
4,CGCAACCC,0.0713
5,CTGTCAGC,-0.0401
6,ATCGAGGG,-0.169
7,ACTACTGG,0.139
8,GACTGGAC,0.0539
9,CTAGACTA,0.0904
10,CTTAAACA,-0.09
11,CTAGGGGC,-0.082
12,GCCAGTAC,-0.101
13,GGACCATA,0.0965
14,GTGCGGAA,0.0136
15,GATTCAAC,-0.112
16,ATGACCAC,-0.153
17,AATTCCGC,0.178
18,AAAAGCAT,0.135
19,CACAGATA,0.0234
20,ACGCATTC,0.0779
21,ACTTCACG,-0.138
22,AGCGACGC,-0.0077
23,AAACACCG,-0.0471
24,ACGATAGC,-0.109
25,ACTTTAGA,-0.00396

row,Sequence,PBM E-score
1,CAGTCTGC,-0.144
2,AGGGACAC,-0.00778
3,GGGGCTTA,-0.192
4,CGCTTAGC,-0.0367
5,ACGAATAT,0.115
6,CCGTGGCA,-0.0521
7,AGCACCCG,0.282
8,GCGGCTCC,0.22
9,ACCTATTG,-0.0304
10,ATCACCCA,-0.0228
11,GGTTATTA,0.0421
12,GTACGACA,-0.0554
13,GGATCACC,-0.12
14,CTTAATTC,0.123
15,GACAGCGA,-0.198
16,ATATAGCG,0.0331
17,AGCACCAT,0.282
18,CTCCGTCC,-0.0374
19,CAACGTGC,0.0253
20,GAATCCAC,0.224
21,CATATCCG,-0.012
22,CGTGCAAG,-0.242
23,AGCTCTAT,-0.149
24,AGGTAAAC,-0.13
25,AACGCCCA,-0.00095

row,Sequence,PBM E-score
1,CACAGGGA,0.129
2,CGTTCGGA,-0.0395
3,CAGAAACC,0.193
4,CTCCACTC,0.022
5,CGCCTTAG,0.0337
6,AGCTGTCA,-0.125
7,AACGGCTC,0.0408
8,ACGCGTGA,0.187
9,ACTGTGGC,0.121
10,GGTAACTA,0.0673
11,CGGCCGGC,-0.163
12,AACGTACA,-0.164
13,CCTAAAAG,0.0659
14,CAGGAAAG,-0.0487
15,GGCAGTCA,-0.103
16,CAAGGCTG,-0.147
17,CGTGCGTC,0.0849
18,CATTCACC,-0.078
19,ATATCGCG,0.0825
20,AACGGAGA,-0.0758
21,CACAGGCA,0.125
22,CGTTGATC,-0.182
23,CCTAGCCC,-0.0765
24,AAAGATGT,0.107
25,GAGGAGCC,0.118

row,Sequence,PBM E-score
1,AAACTACT,0.0652
2,GACCGGTA,-0.00353
3,AGCGAGCT,-0.0498
4,CGCGTGAG,0.147
5,AGGTTCAC,-0.122
6,ACTCCAGG,0.0977
7,GCTAGTAA,0.215
8,AGTGTATA,-0.263
9,CAATCTAA,-0.181
10,GAGTTCGC,-0.122
11,GACGCCCC,0.0383
12,CCAGATGC,0.257
13,ATTCTCTA,-0.228
14,TAAGTCCA,-0.0398
15,ACACAAGT,-0.00802
16,TCGCCGAA,0.0743
17,CGTGTTTC,0.146
18,TCCTCCGA,-0.138
19,ATATCAGA,-0.0028
20,GTAGATAA,0.068
21,AATGAGAT,0.0913
22,AAGCGTAG,0.0218
23,ATAACCAG,-0.0278
24,ATCGCCAG,-0.0225
25,CCAAAGAC,0.0729

row,Sequence,PBM E-score
1,CAGCGACG,0.027
2,CAGGCATG,-0.00554
3,AACGATGT,-0.0499
4,AGCGATCC,-0.175
5,GCTCTGGA,0.152
6,AGCTCCCT,0.0321
7,ATGCAGGA,0.207
8,CATAGAAA,0.114
9,GTTACGTA,-0.102
10,GCTAGACC,-0.176
11,AGTTACCA,-0.0819
12,CATGTGCA,-0.0549
13,AGCATGGC,-0.215
14,ACGGAGGG,-0.192
15,CCTGTACA,0.0853
16,GGTAAATA,0.13
17,CTTAAGTA,0.0424
18,CCAATTCA,0.0362
19,ATACATAA,0.0469
20,GCCATATA,0.011
21,CCACACAG,-0.0371
22,GCGGGATA,0.0374
23,AGGAGACG,0.213
24,CGCAAGAC,-0.0974
25,CCGGTAGA,-0.0529

row,Sequence,PBM E-score
1,AATCGCTC,-0.149
2,AGAGCACA,0.042
3,TACGACCA,-0.11
4,ACCTATAT,0.194
5,CAACCAGG,-0.0681
6,AAGTTATG,-0.0312
7,ATCTACGA,0.0323
8,ACGTGAGT,-0.186
9,GAAGTATC,-0.128
10,ACTGGGAA,0.0642
11,GCTTTTGA,0.0765
12,CATCATGG,-0.076
13,CTCTTCAC,-0.0609
14,CCATCGGC,0.046
15,AATAATCA,0.118
16,CACGTGAC,-0.0941
17,CAATTAGA,0.215
18,GCCGGTTA,0.0616
19,GCACGAGA,-0.157
20,AGCTCCAG,0.0423
21,CATTTTAA,0.252
22,CCGCGATA,0.0744
23,GACTTCAA,-0.0566
24,CAAGTCGA,-0.0784
25,AGCCCGAA,0.17

row,Sequence,PBM E-score
1,CGCACGAA,0.11
2,AGAGAACT,-0.096
3,ACAGCGTG,-0.00712
4,ACTTGGTG,0.0131
5,CCGGTGTC,0.0561
6,GGTCGCTA,0.145
7,AGGACGCA,0.0414
8,CCCCGCGG,0.0127
9,ACCACTGC,0.156
10,TCGCTCCA,0.0268
11,GCACAACA,-0.0968
12,AAGCTATG,-0.255
13,ACTCGGAT,0.0892
14,AAGAGCAG,-0.031
15,GATCGTCA,-0.249
16,GGTTTATA,-0.0162
17,ATCGTCGA,-0.154
18,GCTAGAAC,-0.0293
19,CCTGGCCA,-0.203
20,AGGTCAAC,-0.147
21,GTCTCTCA,-0.0771
22,ATAATACC,0.201
